# According to PubChem BioAssay AID493208 (National Center for Advancing Translational Sciences (NCATS), 2011):
# In all, about 44,000 compounds went through this assay and about 340 (0.77%) were called active. Not shown: some 5% with an inconclusive outcome. The call rests on the fitted dose curve; in most records, active means well fitted inhibition curve with a large enough effect; inconclusive means small, poorly fitted or top-dose-only effect; inactive means flat fitted curve, though single readings scatter. The list shows a part of the results.
# Assay: Acumen qHTS Assay for Inhibitors of the mTORC1 Signaling Pathway in MEF (Tsc2-/-, p53-/-) Cells: Sytravon;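 further: plate controls were DMSO for no effect and rapamycin for full effect; nearly all actives have a fitted effect of over 50% in size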
# Conditions: phospho-rpS6 immunofluorescence/PI, 24 h; series mostly up to 38.3 µM; activity change, negative = inhibition: at the top concentration
# How it was run: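 Compounds act on Tsc2-/-, p53-/- fibroblasts carrying an empty vector for 24 h before fixation and dual staining for phospho-S6 and DNA (propidium iodide). Values are percentages of cells above a rapamycin-defined pS6/PI threshold.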
row,SMILES,"activity change, negative = inhibition"
1,Oc1c(Br)cc(Br)cc1-c1nc2ccccc2s1,inactive: 9.9%
2,COc1ccc(OC)c(NC(=O)CSc2cn(CC(=O)N3CCOCC3)c3ccccc23)c1,inactive: -0.525%
3,COc1cccc(C2C(C(=O)Nc3ccccc3)=C(C)Nc3nc(-c4ccccc4)nn32)c1 (stereo not given),inactive: -1.25%
4,CCCN(CCC)C(=O)C1CCCN(S(=O)(=O)c2ccc3c(c2)oc(=O)n3C)C1 (stereo not given),inactive: -4.72%
5,Cc1ccc(-c2nc(CS(=O)CC(=O)N3CCN(c4ccccc4)CC3)c(C)o2)cc1 (stereo not given),inactive: -0.604%
6,O=C(c1ccccc1)c1ccccc1NC(=O)c1ccccc1C(=O)O,inactive: -5.23%
7,COc1ccc(-c2noc(-c3ccc(NC4CCCC4)c([N+](=O)[O-])c3)n2)cc1,inactive: -6.94%
8,CC(=O)c1ccc(N2CCN(C(=O)c3cc4cc5cc(C)ccc5nc4s3)CC2)cc1,inactive: -5.69%
9,Cc1ccc(C)c(NC(=O)C2CCCN(S(=O)(=O)c3ccc4[nH]c(=O)ccc4c3)C2)c1 (stereo not given),inactive: -18.9%
10,Cc1ccc(C(=O)c2oc3ccccc3c2NC(=O)c2cc(-c3ccccc3)on2)cc1F,inactive: -0.656%
11,O=C(Nc1ccc(SC(F)F)cc1)c1cc(-c2ccc3c(c2)OCCO3)on1,inactive: 0.232%
12,Cc1noc(Cn2c(=O)c3cc4c(cc3n(CC(=O)Nc3cccc(Cl)c3)c2=O)OCO4)n1,inactive: -0.247%
13,CCOc1ccc(CNC(=O)c2c(C)nn(-c3ccc(F)cc3)c2-n2cccc2)cc1,inactive: -7.39%
14,CC(=O)Nc1nonc1-c1nnc(SCC(=O)Nc2ccc(C)cc2C)n1C,inactive: -7.24%
15,COc1ccc(NC(=O)[C@@H](c2ccccc2)N2Cc3ccccc3C2=O)cc1OC,inactive: 1.61%
16,CC1CCc2c(sc(NC(=O)COc3ccccc3)c2C(=O)Nc2ccccc2Cl)C1 (stereo not given),inactive: -6.63%
17,Cc1ccc(CSCC(=O)N2CCN(c3cc(Cl)ccc3C)CC2)cc1,inactive: 7.45%
18,Cc1ccc(-n2nc(C(=O)NCCN(C)C)c(=O)n(C)c2=O)cc1,inactive: 3.35%
19,COc1ccc(C2C(C(N)=O)=C(C)Nc3nc(-c4ccccc4Cl)nn32)cc1 (stereo not given),inactive: 4%
20,Cc1ccc2oc(C(=O)N(Cc3ccccc3F)C3CCS(=O)(=O)C3)c(C)c2c1 (stereo not given),inactive: -11%

row,SMILES,"activity change, negative = inhibition"
1,Cc1[nH]c2ccccc2c1C(=O)C(=O)NC1CC(=O)N(c2cccc(F)c2)C1 (stereo not given),inactive: -2.97%
2,COc1cccc(NC(=O)CC2C(=O)OCCN2Cc2ccccc2)c1 (stereo not given),inactive: 2.68%
3,CCCCOc1ccc(-c2cc3c(=O)n(CC(=O)Nc4ccc(Cl)cc4Cl)ccn3n2)cc1,inactive: -2.7%
4,O=C(CSc1nc2c(cnn2-c2ccc(F)cc2)c(=O)[nH]1)Nc1ccc(Br)cc1,inactive: 11.3%
5,Cc1ccc(-c2nn(CC(=O)NC3CCCCC3)c3c2cnc2ccc(F)cc23)cc1C,inactive: -13.7%
6,CCOc1cccc2cc(-c3nnc(Nc4ccc(F)c(Cl)c4)s3)c(=O)oc12,inactive: 0.841%
7,COc1cccc(CNC(=O)c2cc(=O)[nH]c3ccc(S(=O)(=O)N4CCCCC4)cc23)c1,inactive: -1.56%
8,COc1ccccc1CNC(=O)c1ccc2c(c1)sc1nc(-c3ccc(F)cc3)cn12,inactive: -1.83%
9,Cc1cccc(C)c1Nc1c(-c2ccc(Cl)s2)nc2ncccn12,inactive: 4.08%
10,Cc1ccc(Cl)cc1NC(=O)CN(C)S(=O)(=O)c1ccc2c(c1)n(C)c(=O)c(=O)n2C,inactive: -8.81%
11,COc1ccc(CCNC(=O)c2cc(-c3ccccc3)nc3ccccc23)cc1OC,inactive: 1.08%
12,COC(=O)c1scc(-c2ccc(C)cc2)c1S(=O)(=O)Nc1cccc(C(F)(F)F)c1,inactive: 1.23%
13,CCn1cc(C(=O)OCC(=O)Nc2cc(C)cc(C)c2)c(=O)c2ccc(C)nc21,inactive: -6.57%
14,O=C(CSc1nc2ccccc2c(=O)n1CCC(=O)NC1CCCCC1)Nc1ccccc1Cl,inactive: 1.47%
15,COC(=O)c1sc2cccc(F)c2c1S(=O)(=O)Nc1cc(OC)cc(OC)c1,inactive: -9.6%
16,Cc1nn(CCCC(=O)NCc2ccccc2)c(=O)c2nn(-c3ccccc3)c(C)c12,inactive: 0.658%
17,CCC(=O)N1CCc2cc(S(=O)(=O)NCCC(=O)Nc3ccc(OC)c(Cl)c3)ccc21,inactive: -18.6%
18,CCOc1ccc(CC(=O)Nc2nnc3n2CCS3)cc1,inactive: 0.986%
19,O=C(CSc1cn(CC(=O)N2CCCCCC2)c2ccccc12)Nc1ccccc1F,inactive: -14%
20,CCc1nnc2c(NCc3ccccc3OC)nc3ccccc3n12,inactive: -14.6%

row,SMILES,"activity change, negative = inhibition"
1,CC(C)c1nnc(N2C(=O)c3oc4ccccc4c(=O)c3C2c2cccc(O)c2)s1 (stereo not given),inactive: 1.47%
2,COC(=O)CNC(=O)C(Cc1ccccc1)NS(=O)(=O)c1ccc2c(c1)c(=O)n(C)c(=O)n2C (stereo not given),inactive: 1.99%
3,CCN(C(=O)C1CCN(S(=O)(=O)c2ccc3c(c2)CCCN3C(=O)C2CCC2)CC1)c1cccc(C)c1,inactive: -12.5%
4,Cc1c(Cl)cccc1NC(=O)c1cnc2sc(N3CCCC3)nn2c1=O,inactive: -11.9%
5,Cc1ccc(NC(=O)Cn2c(=O)n(CCCCCC(=O)NCc3ccc(F)cc3)c(=O)c3sccc32)c(C)c1,inactive: -17.5%
6,COCCN1Cc2cccc(C(=O)Nc3ccc(C)cc3C)c2C1=O,inactive: 0.0743%
7,Cc1cc2c(cc1S(=O)(=O)N1CCC(C)CC1)OCC(=O)N2,inactive: 7.64%
8,O=C(COc1ccccc1)Nc1ccc(S(=O)(=O)N(Cc2ccccc2)c2ccccc2)cc1,inactive: 0.547%
9,Cc1c(C(=O)NCc2ccc(N(C)C)cc2)oc2c1-c1nn(Cc3cccc(Cl)c3)cc1CC2,inactive: 0.0257%
10,COc1ccc(-c2nc(-c3ccccc3)c(-c3ccccc3)[nH]2)cc1Br,inactive: -5.85%
11,CCCC12CN3CC(CCC)(CN(C1)C3c1c[nH]c3ccccc13)C2=O (stereo not given),inactive: -13.4%
12,Cc1ccc(-c2nnc(SCC(=O)N3CCc4ccccc43)o2)cc1,inactive: 0.152%
13,Cc1cc(C)cc(NC(=O)Cn2c(=O)oc3cc(S(=O)(=O)N4CCCC4)ccc32)c1,inactive: -9.08%
14,O=S(=O)(c1ccc2ccccc2c1)n1nc(-c2ccco2)nc1NCc1cccc(Cl)c1,inactive: 1.94%
15,Cc1ccc(CNC(=O)c2ccc3c(c2)N(Cc2ccccc2F)C(=O)c2ccccc2S3(=O)=O)cc1,inactive: -1.6%
16,COc1cccc(CNC(=O)c2cnc(N3CCCC3)nc2C)c1,inactive: 4.43%
17,COc1ccc(S(=O)(=O)c2cn(C)c3cc(N4CCCC4)c(F)cc3c2=O)cc1,inactive: -3.05%
18,CCOc1ccc(CCNC(=O)Cn2nnc(-c3ccc(OC)c(OC)c3)n2)cc1OCC,inactive: -6.57%
19,CN1CCN(C(CNC(=O)C(=O)Nc2ccc(F)cc2F)c2ccc3c(c2)OCO3)CC1 (stereo not given),inactive: -1.11%
20,CC(C)Oc1ccc(CNS(=O)(=O)c2cnc(N)nc2)cc1,inactive: -0.15%
